# Reference: the supplement of paper PMC11417369
# The list shows a part of the results.
# System: PfHDP1 homeodomain (GST-tagged)
# Experiment: gcPBM binding intensity (ln(normalized median fluorescence intensity)); higher = stronger DNA binding
# Outline: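 GST-tagged P. falciparum DNA-binding domains produced in E. coli were incubated for 1 h on an Agilent 4 × 180k array of primer-extended double-stranded 36-bp intergenic genomic probes with negative controls. Binding intensity is the highest Masliner-normalised natural-log median intensity across replicate spots of either probe orientation, with bound protein detected by Alexa488 anti-GST antibody at 488 nm.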
row,Sequence,gcPBM binding intensity (ln)
1,TTATGGAACCCCATTCGTACATAAATATTTTATATA [XGTACX_site7112],6.16
2,GTATAATATGAACACACACACACACCCAAAAAAAAA [CACACA_site5152],6.85
3,TATATAACTTTATTTTTCTTTACTTATTTTATTTTA [GTGCAC_negctrl_site66],6.28
4,CTAGCAAATACATACACACACACACGGATACCTATA [CACACA_site7609],6.93
5,ATATATATATATATATGTACATATTATTAATAATAT [XGTACX_site6667],9.32
6,TTTTTTAAAATATATATAATGAATTTTTTTTTTTTT [CACACA_negctrl_site1577],5.81
7,AAAGAAAAAAAAAAAAGTACATAAATATAAAAAGAA [XGTACX_site6753],6.65
8,AATTGTTCGATATATGCACACAGTTTTGTTATTTTT [CACACA_site1615],9.38
9,TATTTATATTTATATACACACTATATAACTCAAACA [CACACA_site6611],6.57
10,TATATACAAATATGCTGTACAAAAAAAAAAAAAAAA [XGTACX_site4732],6.33
11,TATAATAATAATGATAGTACGTATGAGTTCAAAAAA [XGTACX_site608],6.47
12,CGGTATTTTTTAATTTGTACGCATATACAATAATTA [XGTACX_site8603],6.51
13,TTTTATTATTTATATACACACTTGCTGAAATGTTAT [CACACA_site5919],6.87
14,GATATGATTACCTTATGGTGTTTTTGATGGATAGTT [CACACA_negctrl_site1504],6.26
15,TTTTTTATTTTAATGTATTATTTTTATGTAATATAT [GTGCAC_negctrl_site391],6.3
16,TACTTACAGATAATAACACACAAGAAAAAAATAAAA [CACACA_site4716],6.61
17,TATATATATATCAAGTGTACTTGTGTTTGTAATATT [XGTACX_site8854],8.6
18,AATATTTATGGGTGCACACAAACATACAGATATATA [CACACA_site5810],10.3
19,AAAAAACAGACATACACACACACACGGATATTTATA [CACACA_site7570],6.7
20,TACAAATATGGACACACACACATATTTATATTTATA [CACACA_site6420],6.75
21,ATATAAATGTATATGACACACATATATATATATATA [CACACA_site889],9.54
22,TTTTTTTTGTTGTTGTTGCACTTGATAGGAATGGCT [GTGCAC_site9701],7.73
23,CCATTTACAAAAAGGAGTACACAAATATATGTTTAA [XGTACX_site649],6.38
24,AAAAAAAACAGACACACACACAAATACATACACAAA [CACACA_site705],6.97
